Whole data set: some 33,000 sequences, median “E-score (-0.5 to 0.5)” near -0.011, cut for the highest 2% near 0.28. This is one part of the list.

For this assay, the target named is T1, Gcr1 (UniProt P07261).
T1 sequence: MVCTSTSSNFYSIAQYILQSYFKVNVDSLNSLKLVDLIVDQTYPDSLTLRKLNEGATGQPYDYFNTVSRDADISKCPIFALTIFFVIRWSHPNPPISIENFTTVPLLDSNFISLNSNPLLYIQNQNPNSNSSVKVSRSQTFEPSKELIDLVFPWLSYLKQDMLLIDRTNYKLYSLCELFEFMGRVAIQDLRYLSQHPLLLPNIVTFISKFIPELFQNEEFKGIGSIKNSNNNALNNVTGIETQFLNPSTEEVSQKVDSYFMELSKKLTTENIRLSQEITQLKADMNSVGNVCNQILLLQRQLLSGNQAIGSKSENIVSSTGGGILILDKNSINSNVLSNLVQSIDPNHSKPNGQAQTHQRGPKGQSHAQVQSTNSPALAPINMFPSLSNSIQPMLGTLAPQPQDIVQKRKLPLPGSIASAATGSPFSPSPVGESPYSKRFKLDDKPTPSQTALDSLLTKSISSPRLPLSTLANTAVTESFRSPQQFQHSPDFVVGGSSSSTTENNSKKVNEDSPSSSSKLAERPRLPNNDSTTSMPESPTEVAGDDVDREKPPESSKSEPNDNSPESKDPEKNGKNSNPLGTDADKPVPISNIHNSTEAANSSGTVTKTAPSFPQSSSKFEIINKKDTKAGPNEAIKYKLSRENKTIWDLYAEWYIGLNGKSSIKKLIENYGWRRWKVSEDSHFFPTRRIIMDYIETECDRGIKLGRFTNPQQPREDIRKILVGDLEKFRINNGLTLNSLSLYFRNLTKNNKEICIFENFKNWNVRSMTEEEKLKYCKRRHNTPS
In words: PBM E-score (8-mer binding enrichment) (E-score (-0.5 to 0.5)); higher = stronger / more preferred TF binding; most listed sequences are background and not binding sites. Conditions: protein concentration: 100 nM; construct: GST-full length. Put shortly:
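Yeast transcription factors, full-length or as DNA-binding domains, were expressed with a GST tag using PURExpress in vitro transcription/translation. At about 100-200 nM they were applied to universal all-10-mer Agilent arrays, double-stranded by primer extension on fresh or once-stripped slides. Fluorescent anti-GST detected bound protein, and masliner normalised the scans. E-scores for ungapped eight-base words, pooled with reverse complements, came from the Universal PBM Analysis Suite.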
For CGGCCGGA, the “PBM E-score” value was -0.181.
With AGGGAACA the figure was -0.173.
With AACTAAAG the figure was 0.0707; with ACTGAGAT, -0.0998.
As for CTTGTCGC, the figure is 0.122; as for TATCGAAA, 0.0143; as for TACGCATA, -0.0827.
For the sequence ACGACGAT, the “PBM E-score” value was determined as 0.0839.
In the case of CGAGCACC, the “PBM E-score” value worked out at 0.243.
Regarding CAGGATTA, the “PBM E-score” value was 0.125.
With GTATCAAC the figure was 0.0405; with ATCAAGGG, -0.15; with CTTGGGCC, -0.117.
For the sequence AAATATGG, the “PBM E-score” value came out at 0.106.
As for CTCTCGCA, the figure is 0.0115; as for CCCAAGAC, -0.166; as for AACTGAAA, 0.135.
As for AGACCTTC, the figure is -0.198; as for GCCCATCA, 0.00662.
As for CCTGACTC, the figure is 0.00419; as for CATCTTCA, 0.062.
As for CAGAGATG, the “PBM E-score” value is 0.0113.
With CCAGCGCG the figure was -0.042; with CATCGGTC, -0.231.
In the case of GCAAGAAC, the “PBM E-score” value was -0.137.
With TCAATTGA the figure was 0.00453.
Consider GCGATCCC, for which the “PBM E-score” value was 0.0838.
Take GCGCCCGC: the “PBM E-score” value stood at 0.315.
With AGCACCCT, the “PBM E-score” value stood at 0.277.
As for GTTATGTA, the figure is -0.0225.
As for ACTCAGGC, the figure is 0.121.
As to CCTGTCAA, the “PBM E-score” value stood at 0.177.
On to CTGAATGC, for which the “PBM E-score” value is -0.0265.
Consider AGCGCCAG, for which the “PBM E-score” value was -0.0354.
In the case of GGCATGGA, the “PBM E-score” value was -0.223.
With ATCCATTG the figure was 0.0773.
As for GCTCGGGA, the figure is -0.0298; as for CGGGAGAC, 0.036; as for AACATATC, -0.0354.
Regarding ATCCCGTG, the “PBM E-score” value stood at 0.0951.
As to TCCAGGGA, the “PBM E-score” value was -0.0395.
In the case of ACAGGGCG, the “PBM E-score” value worked out at 0.213.
With CACACTCC the figure was -0.0523; with AAGGGCGA, -0.255; with AGGAGCTG, -0.0949.
Regarding AGTGAAAG, the “PBM E-score” value was determined as 0.148.
As for ATTCTCGC, the figure is -0.159; as for CAAGGTCA, -0.24; as for CCATGCCA, -0.00115.
With AAGTAATC the figure was -0.0951; with GATACGTA, 0.0643.
With ATCTTTCC the figure was -0.0641; with ATGTGTGA, -0.0163.
As to CCCGTTTC, the “PBM E-score” value was -0.00282.
Take AGAAAGAG: the “PBM E-score” value is 0.0424.
Take ATCTTGGC: the “PBM E-score” value is 0.0645.
With GAACAGTC, the “PBM E-score” value is -0.311.
Take ATGAACAT: the “PBM E-score” value was -0.163.
As for CAAACTAG, the figure is 0.0123; as for CAGGATAG, 0.189; as for AGGTGCCC, 0.395.
Take CATCGCCC: the “PBM E-score” value is -0.251.
With CTAAACTA the figure was 0.038; with CGGTTACA, -0.0328.
As to CGTGATAG, the “PBM E-score” value is -0.0912.
With CATTACCC the figure was 0.0419.
As for CTCGGTCC, the “PBM E-score” value is -0.158.
As for CCAGACAC, the figure is -0.021; as for TCGAATAA, 0.0159; as for CGCCCAAG, 0.00152.
In the case of CACTCTCG, the “PBM E-score” value is -0.0677.
CATTTTCG: the “PBM E-score” value was 0.0498.
AAGGGCGT: the “PBM E-score” value is -0.21.
In the case of AGGTAACG, the “PBM E-score” value was 0.0176.
ATTTTAAG: the “PBM E-score” value turned out to be 0.0417.
As for ACCGAGAT, the figure is 0.0535; as for TGATTAAA, 0.155.
With ACAGGCTA the figure was -0.0301; with GCTAGACA, -0.182; with CCTGCGAG, -0.244.
Consider GGATAGAA, for which the “PBM E-score” value was 0.0454.
As for AAGATACC, the figure is 0.0954.
With AACCGAAG the figure was -0.105.
AGACGTAA: the “PBM E-score” value was -0.194.
With CTCCTGAA the figure was 0.085; with CGGCTGTA, -0.232.

(Values after the supplement of paper PMC3334620.)
